# According to the supplement of paper PMC8728848:
# This is one part of the list.
# B1: rCnSL-proB (Clitocybe nebularis) (protein)
# chain: PTFSPIFALLAFLPFGTLASLLPQTQLVFRINPNLPGPNDVFVGYRGTNNVVGAIYERDGIKDTPMNNGADAELGPGSYITDDLFTAQIFASGSAGNNPGTTATVCKIYADGVQWRGAPKGYLPVLYFGNGQAAEQTRQTYLQGLDIPGTAIRFANLAKTPNQGPTAPRQMVVPSGGLQTLLKASCFPANHAALPQVLSYFNVRAALPPGWNIRTGPEFPNWTN
# What was measured:
# Test in all cases: glycan array binding signal (z-score within array); higher = stronger binding
# Details in all cases: glycan notation: IUPAC condensed, linker removed
# [1] = molecular target: Neu5Ac(a2-6)GlcNAc(b1-4)GlcNAc(b1-4)GlcNAc
# Procedure, shortened: (§1)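 Glycan array data came from 3228 arrays in the Consortium for Functional Glycomics database, and only arrays with an available protein sequence were kept. Glycan names were put into IUPAC-condensed notation, and columns mapping to the same glycan were averaged. The binding signal is a within-array Z-score, averaged across arrays of one protein sequence run at different concentrations or buffers and across linkers. A negative Z-score can be read as non-binding.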
# Neu5Ac(a2-8)Neu5Ac = molecular target: Neu5Ac(a2-8)Neu5Ac
# Procedure, shortened: as §1
# [2] = molecular target: Neu5Ac(a2-8)Neu5Ac(a2-3)Gal(b1-3)GalNAc(b1-4)[Neu5Ac(a2-3)]Gal(b1-4)Glc
# Procedure, shortened: as §1
# [3] = molecular target: Neu5Ac(a2-8)Neu5Ac(a2-3)Gal(b1-3)GalNAc(b1-4)[Neu5Ac(a2-8)Neu5Ac(a2-3)]Gal(b1-4)Glc
# Procedure, shortened: as §1
# [4] = molecular target: Neu5Ac(a2-8)Neu5Ac(a2-3)Gal(b1-4)Glc
# Procedure, shortened: as §1
# [5] = molecular target: Neu5Ac(a2-8)Neu5Ac(a2-3)Gal(b1-4)GlcNAc
# Procedure, shortened: as §1
# [6] = molecular target: Neu5Ac(a2-8)Neu5Ac(a2-3)[Gal(b1-3)GalNAc(b1-4)]Gal(b1-4)Glc
# Procedure, shortened: as §1
# [7] = molecular target: Neu5Ac(a2-8)Neu5Ac(a2-3)[GalNAc(b1-4)]Gal(b1-4)Glc
# Procedure, shortened: as §1
# [8] = molecular target: Neu5Ac(a2-8)Neu5Ac(a2-8)Neu5Ac
# Procedure, shortened: as §1
# [9] = molecular target: Neu5Ac(a2-8)Neu5Ac(a2-8)Neu5Ac(a2-3)Gal(b1-4)Glc
# Procedure, shortened: as §1
# [10] = molecular target: Neu5Ac(a2-8)Neu5Ac(a2-8)Neu5Ac(a2-3)[Gal(b1-3)GalNAc(b1-4)]Gal(b1-4)Glc
# Procedure, shortened: as §1
# [11] = molecular target: Neu5Ac(a2-8)Neu5Ac(a2-8)Neu5Ac(a2-3)[GalNAc(b1-4)]Gal(b1-4)Glc
# Procedure, shortened: as §1
# [12] = molecular target: Neu5Ac(a2-8)Neu5Ac(a2-8)Neu5Ac(a2-8)Neu5Ac(a2-3)[GalNAc(b1-4)]Gal(b1-4)Glc
# Procedure, shortened: as §1
# [13] = molecular target: Neu5Ac(a2-8)Neu5Gc(a2-3)Gal(b1-4)GlcNAc
# Procedure, shortened: as §1
# [14] = molecular target: Neu5Ac(b2-6)Gal(b1-4)GlcNAc
# Procedure, shortened: as §1
# Neu5Ac(b2-6)GalNAc = molecular target: Neu5Ac(b2-6)GalNAc
# Procedure, shortened: as §1
# [15] = molecular target: Neu5Ac9Ac(a2-3)Gal(b1-3)GlcNAc
# Procedure, shortened: as §1
# [16] = molecular target: Neu5Ac9Ac(a2-3)Gal(b1-4)GlcNAc
# Procedure, shortened: as §1
# [17] = molecular target: Neu5Ac9Ac(a2-6)Gal(b1-4)GlcNAc
# Procedure, shortened: as §1
# [18] = molecular target: Neu5Gc(a2-3)Gal(b1-3)GlcNAc
# Procedure, shortened: as §1
# [19] = molecular target: Neu5Gc(a2-3)Gal(b1-3)[Fuc(a1-4)]GlcNAc
# Procedure, shortened: as §1
# Neu5Gc(a2-3)Gal(b1-4)Glc = molecular target: Neu5Gc(a2-3)Gal(b1-4)Glc
# Procedure, shortened: as §1
# [20] = molecular target: Neu5Gc(a2-3)Gal(b1-4)GlcNAc
# Procedure, shortened: as §1
# [21] = molecular target: Neu5Gc(a2-3)Gal(b1-4)GlcNAc(b1-3)Gal(b1-4)GlcNAc(b1-2)Man(a1-3)[Neu5Gc(a2-3)Gal(b1-4)GlcNAc(b1-3)Gal(b1-4)GlcNAc(b1-2)Man(a1-6)]Man(b1-4)GlcNAc(b1-4)GlcNAc
# Procedure, shortened: as §1
# [22] = molecular target: Neu5Gc(a2-3)Gal(b1-4)[Fuc(a1-3)]GlcNAc
# Procedure, shortened: as §1
# [23] = molecular target: Neu5Gc(a2-6)Gal(b1-4)GlcNAc
# Procedure, shortened: as §1
# Neu5Gc(a2-6)GalNAc = molecular target: Neu5Gc(a2-6)GalNAc
# Procedure, shortened: as §1
# [24] = molecular target: Neu5Gc(a2-8)Neu5Ac(a2-3)Gal(b1-4)GlcNAc
# Procedure, shortened: as §1
# [25] = molecular target: Neu5Gc(a2-8)Neu5Gc(a2-3)Gal(b1-4)GlcNAc
# Procedure, shortened: as §1
# [26] = molecular target: Neu5Gc(a2-8)Neu5Gc(a2-3)Gal(b1-4)GlcNAc(b1-3)Gal(b1-4)GlcNAc
# Procedure, shortened: as §1
# [27] = molecular target: Neu5Gc(a2-8)Neu5Gc(a2-6)Gal(b1-4)GlcNAc
# Procedure, shortened: as §1
# [28] = molecular target: Neu5Gc(b2-6)Gal(b1-4)GlcNAc
# Procedure, shortened: as §1
binder,measurement,setting,value
B1,glycan array binding signal (z-score),[1],-0.665
same,glycan array binding signal (z-score),Neu5Ac(a2-8)Neu5Ac,-0.779
same,glycan array binding signal (z-score),[2],-0.495
same,glycan array binding signal (z-score),[3],-0.129
same,glycan array binding signal (z-score),[4],-0.59
same,glycan array binding signal (z-score),[5],-0.761
same,glycan array binding signal (z-score),[6],0.503
same,glycan array binding signal (z-score),[7],-0.432
same,glycan array binding signal (z-score),[8],-0.203
same,glycan array binding signal (z-score),[9],-0.271
same,glycan array binding signal (z-score),[10],0.882
same,glycan array binding signal (z-score),[11],0.31
same,glycan array binding signal (z-score),[12],-0.106
same,glycan array binding signal (z-score),[13],-0.929
same,glycan array binding signal (z-score),[14],0.221
same,glycan array binding signal (z-score),Neu5Ac(b2-6)GalNAc,-0.39
same,glycan array binding signal (z-score),[15],-0.873
same,glycan array binding signal (z-score),[16],2.62
same,glycan array binding signal (z-score),[17],-0.431
same,glycan array binding signal (z-score),[18],-0.332
same,glycan array binding signal (z-score),[19],-0.449
same,glycan array binding signal (z-score),Neu5Gc(a2-3)Gal(b1-4)Glc,-1.34
same,glycan array binding signal (z-score),[20],-0.525
same,glycan array binding signal (z-score),[21],-0.066
same,glycan array binding signal (z-score),[22],-0.511
same,glycan array binding signal (z-score),[23],0.015
same,glycan array binding signal (z-score),Neu5Gc(a2-6)GalNAc,-0.491
same,glycan array binding signal (z-score),[24],-0.556
same,glycan array binding signal (z-score),[25],0.262
same,glycan array binding signal (z-score),[26],-0.869
same,glycan array binding signal (z-score),[27],-0.298
same,glycan array binding signal (z-score),[28],-0.407
